The results in this text go back to the supplement of paper PMC12217912.

Sequences and labels used below:
B1: TEV protease; numbered along this chain (parent)
chain: MGESLFKGPRDYNPISSSICHLTNESDGHTTSLYGIGFGPFIITNKHLFRRNNGTLVVQSLHGVFKVKDTTTLQQHLVDGRDMIIIRMPKDFPPFPQKLKFREPQREERICLVTTNFQTKSMSSMVSDTSCTFPSGDGIFWKHWIQTKDGQCGSPLVSTRDGFIVGIHSASNFTNTNNYFTSVPKNFMELLTNQEAQQWVSGWRLNADSVLWGGHKVFMVKPEEPFQPVKEATQL

The other results are listed elsewhere or left out. Sequences were assembled here from the parent chain. Inactive controls read about 0.05.

The variants in this test derive from B1. Description: raw area under fraction-flipped curve 0-4 h after induction (AUC4h, not background-subtracted), DNA-recorder readout of cleavage of the substrate (dimensionless); higher = more cleavage of the substrate by the protease variant. Particulars: temperature: 34 °C; time window: 0-4 h after rhamnose induction. As to the method:
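In vivo DNA recorder in E. coli TOP10(DE3) ΔrhaA at 34 °C. Each TEVp single-site mutant (parent TEVp 0) is paired with a single-site variant of the 7-mer TEVs (canonical ENLYFQ|S). The substrate sits between flexible linkers in a Bxb1-sfGFP-TEVs-SsrA fusion, so cleavage stabilises Bxb1 and speeds flipping of a recombination array, read by NGS. The value is the raw area under the fraction-flipped curve over 0-4 h after rhamnose induction (AUC4h), with ≥20 reads per time point. It is not background-subtracted; inactive controls average about 0.047.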
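Note: Bxb1 expression induced with 0.2% (w/v) L-rhamnose at OD600 near 0.5, cultures sampled hourly, flipped fraction per protease–substrate barcode pair counted by paired-end Illumina sequencing.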

As to MGESLFKGPRDYNPISSSICHLTNESDGHTTSLYGIGFGPFIITNKHLFRRNNGTLVVQSLHGVFKVKDTTTLQQHLVDGRDMIIIRMPKDFPPFPQKLKFREPQREERICLVTTNFQTKSMSSMVSDTSCTFPSGDGIFWKHWIQTKDGQCGSPLVSTRDGFIVGIHSASNSTNTNNYFTSVPKNFMELLTNQEAQQWVSGWRLNADSVLWGGHKVFMVKPEEPFQPVKEATQL [F173S], the “area with substrate ENLYFAS” value turned out to be 0.0589, the “area with substrate ENLYFCS” value is 0.0538, the “area with substrate ENLYFDS” value was 0.0753 and the “area with substrate ENLYFGS” value stood at 0.0708. For the same variant, the “area with substrate ENLYFHS” value is 0.0404, the “area with substrate ENLYFIS” value was found to be 0.0761, the “area with substrate ENLYFKS” value came out at 0.0419 and the “area with substrate ENLYFLS” value worked out at 0.07. For the same variant, the “area with substrate ENLYFNS” value was found to be 0.0575, the “area with substrate ENLYFPS” value was found to be 0.0618, the “area with substrate ENLYFTS” value came out at 0.0521 and the “area with substrate ENLYFVS” value was 0.0563. Besides, the “area with substrate ENLYFWS” value was determined as 0.0522 and the “area with substrate ENLYFYS” value is 0.0562.
Consider MGESLFKGPRDYNPISSSICHLTNESDGHTTSLYGIGFGPFIITNKHLFRRNNGTLVVQSLHGVFKVKDTTTLQQHLVDGRDMIIIRMPKDFPPFPQKLKFREPQREERICLVTTNFQTKSMSSMVSDTSCTFPSGDGIFWKHWIQTKDGQCGSPLVSTRDGFIVGIHSASNLTNTNNYFTSVPKNFMELLTNQEAQQWVSGWRLNADSVLWGGHKVFMVKPEEPFQPVKEATQL [F173L], for which the “area with substrate ENLYFAS” value came out at 0.0487, the “area with substrate ENLYFCS” value is 0.0492, the “area with substrate ENLYFES” value was determined as 0.0593 and the “area with substrate ENLYFFS” value was found to be 0.0768. In addition, the “area with substrate ENLYFIS” value was 0.0719, the “area with substrate ENLYFKS” value turned out to be 0.0453, the “area with substrate ENLYFLS” value worked out at 0.0532 and the “area with substrate ENLYFMS” value was found to be 0.0754. Also, the “area with substrate ENLYFPS” value was 0.066, the “area with substrate ENLYFSS” value is 0.0794 and the “area with substrate ENLYFVS” value amounted to 0.0734.
In the case of MGESLFKGPRDYNPISSSICHLTNESDGHTTSLYGIGFGPFIITNKHLFRRNNGTLVVQSLHGVFKVKDTTTLQQHLVDGRDMIIIRMPKDFPPFPQKLKFREPQREERICLVTTNFQTKSMSSMVSDTSCTFPSGDGIFWKHWIQTKDGQCGSPLVSTRDGFISGIHSASNFTNTNNYFTSVPKNFMELLTNQEAQQWVSGWRLNADSVLWGGHKVFMVKPEEPFQPVKEATQL [V165S], the “area with substrate ENLYFAS” value amounted to 0.0471, the “area with substrate ENLYFCS” value was determined as 0.049, the “area with substrate ENLYFES” value stood at 0.0616 and the “area with substrate ENLYFFS” value was determined as 0.0504. The “area with substrate ENLYFHS” value was 0.0454, the “area with substrate ENLYFIS” value turned out to be 0.046, the “area with substrate ENLYFKS” value amounted to 0.0449 and the “area with substrate ENLYFMS” value turned out to be 0.0475. The “area with substrate ENLYFNS” value came out at 0.0551, the “area with substrate ENLYFPS” value came out at 0.0448, the “area with substrate ENLYFRS” value is 0.0511 and the “area with substrate ENLYFSS” value amounted to 0.034. Besides, the “area with substrate ENLYFTS” value was found to be 0.0415, the “area with substrate ENLYFVS” value was determined as 0.0352 and the “area with substrate ENLYFWS” value was determined as 0.0542.
MGESLFKGPRDYNPISSSICHLTNESDGHTTSLYGIGFGPFIITNKHLFRRNNGTLVVQSLHGVFKVKDTTTLQQHLVDGRDMIIIRMPKDFPPFPQKLKFREPQREERICLVTTNFQTKSMSSMVSDTSCTFPSGDGIFWKHWIQTKDGQCGSPLVSTRDGFIFGIHSASNFTNTNNYFTSVPKNFMELLTNQEAQQWVSGWRLNADSVLWGGHKVFMVKPEEPFQPVKEATQL [V165F]: the “area with substrate ENLYFAS” value was found to be 0.0492, the “area with substrate ENLYFCS” value was determined as 0.045, the “area with substrate ENLYFES” value worked out at 0.072 and the “area with substrate ENLYFFS” value was found to be 0.0648. Further, the “area with substrate ENLYFHS” value turned out to be 0.0554, the “area with substrate ENLYFIS” value stood at 0.0459, the “area with substrate ENLYFKS” value was found to be 0.0488 and the “area with substrate ENLYFMS” value was found to be 0.064. The “area with substrate ENLYFRS” value turned out to be 0.0341, the “area with substrate ENLYFTS” value turned out to be 0.0559, the “area with substrate ENLYFVS” value worked out at 0.0482 and the “area with substrate ENLYFWS” value came to 0.0533.
MGESLFKGPRDYNPISSSICHLTNESDGHTTSLYGIGFGPFIITNKHLFRRNNGTLVVQSLHGVFKVKDTTTLQQHLVDGRDMIIIRMPKDFPPFPQKLKFREPQREERICLVTTNFQTKSMSSMVSDTSCTFPSGDGIFWKHWIQTKDGQCGSPLVSTRDGFIVGIHSASNFTNTNNYFTSFPKNFMELLTNQEAQQWVSGWRLNADSVLWGGHKVFMVKPEEPFQPVKEATQL [V183F]: the “area with substrate ENLYFAS” value was determined as 0.0622, the “area with substrate ENLYFDS” value stood at 0.0495, the “area with substrate ENLYFES” value amounted to 0.0636 and the “area with substrate ENLYFGS” value was 0.0334. Also, the “area with substrate ENLYFHS” value was 0.0605, the “area with substrate ENLYFIS” value worked out at 0.0574, the “area with substrate ENLYFLS” value was 0.0587 and the “area with substrate ENLYFMS” value was found to be 0.0616. Also, the “area with substrate ENLYFNS” value was 0.0593, the “area with substrate ENLYFPS” value was 0.0581, the “area with substrate ENLYFRS” value came out at 0.0467 and the “area with substrate ENLYFSS” value was determined as 0.0646. Moreover, the “area with substrate ENLYFTS” value stood at 0.0579, the “area with substrate ENLYFVS” value was 0.0512 and the “area with substrate ENLYFWS” value was 0.0263.
On to MGESLFKGPRDYNPISSSICHLTNESDGHTTSLYGIGFGPFIITNKHLFRRNNGTLVVQSLHGVFKVKDTTTLQQHLVDGRDMIIIRMPKDFPPFPQKLKFREPQREERICLVTTNFQTKSMSSMVSDTSCTFPSGDGIFWKHWIQTKDGQCGSPLVSTRDGFIVGIHSASNFTNTNNYFTSYPKNFMELLTNQEAQQWVSGWRLNADSVLWGGHKVFMVKPEEPFQPVKEATQL [V183Y], for which the “area with substrate ENLYFAS” value amounted to 0.0585, the “area with substrate ENLYFCS” value was found to be 0.0471, the “area with substrate ENLYFDS” value was 0.0491 and the “area with substrate ENLYFFS” value was determined as 0.0639. Further, the “area with substrate ENLYFIS” value came out at 0.0447, the “area with substrate ENLYFKS” value was found to be 0.0287, the “area with substrate ENLYFMS” value worked out at 0.0493 and the “area with substrate ENLYFNS” value amounted to 0.0696. Besides, the “area with substrate ENLYFPS” value is 0.0531, the “area with substrate ENLYFRS” value came to 0.0438, the “area with substrate ENLYFSS” value amounted to 0.0434 and the “area with substrate ENLYFTS” value was 0.0516. Further, the “area with substrate ENLYFVS” value is 0.0573 and the “area with substrate ENLYFWS” value worked out at 0.0537.
On to MGESLFKGPRDYNPISSSICHLTNESDGHTTSLYGIGFGPFIITNKHLFRRNNGTLVVQSLHGVFKVKDTTTLQQHLVDGRDMIIIRMPKDFPPFPQKLKFREPQREERICLVTTNFQTKSMSSMVSDTSCTFPSGDGIFWKHWIQTKDGQCGSPLVSTRDGFIVNIHSASNFTNTNNYFTSVPKNFMELLTNQEAQQWVSGWRLNADSVLWGGHKVFMVKPEEPFQPVKEATQL [G166N], for which the “area with substrate ENLYFAS” value amounted to 0.0445, the “area with substrate ENLYFCS” value was 0.0366, the “area with substrate ENLYFES” value was 0.025 and the “area with substrate ENLYFFS” value was 0.0654. Besides, the “area with substrate ENLYFIS” value was determined as 0.0486, the “area with substrate ENLYFLS” value amounted to 0.049, the “area with substrate ENLYFMS” value was determined as 0.0374 and the “area with substrate ENLYFNS” value is 0.0552. The “area with substrate ENLYFPS” value was 0.0584, the “area with substrate ENLYFRS” value amounted to 0.0392, the “area with substrate ENLYFTS” value came to 0.0536 and the “area with substrate ENLYFVS” value is 0.0509. For the same variant, the “area with substrate ENLYFWS” value is 0.0369 and the “area with substrate ENLYFYS” value was 0.0531.
As for MGESLFKGPRDYNPISSSICHLTNESDGHTTSLYGIGFGPFIITNKHLFRRNNGTLVVQSLHGVFKVKDTTTLQQHLVDGRDMIIIRMPKDFPPFPQKLKFREPQREERICLVTTNFQTKSMSSMVSDTSCTFPSGDGIFWKHWIQTKDGQCGSPLVSTRDGFIVPIHSASNFTNTNNYFTSVPKNFMELLTNQEAQQWVSGWRLNADSVLWGGHKVFMVKPEEPFQPVKEATQL [G166P], the “area with substrate ENLYFAS” value came out at 0.0383, the “area with substrate ENLYFES” value was determined as 0.0336, the “area with substrate ENLYFFS” value worked out at 0.0802 and the “area with substrate ENLYFKS” value stood at 0.0508. Further, the “area with substrate ENLYFNS” value is 0.0335, the “area with substrate ENLYFPS” value is 0.0431, the “area with substrate ENLYFSS” value amounted to 0.0513 and the “area with substrate ENLYFVS” value amounted to 0.051.
For MGESLFKGPRDYNPISSSICHLTNESDGHTTSLYGIGFGPFIITNKHLFRRNNGTLVVQSLHGVFKVKDTTTLQQHLVDGRDMIIIRMPKDFPPFPQKLKFREPQREERICLVTTNFQTKSMSSMVSDTSCTFPSGDGIFWKHWIQTKDGQCGSPLVSTRDGFTVGIHSASNFTNTNNYFTSVPKNFMELLTNQEAQQWVSGWRLNADSVLWGGHKVFMVKPEEPFQPVKEATQL [I164T], the “area with substrate ENLYFAS” value came to 0.0571, the “area with substrate ENLYFCS” value was 0.0439, the “area with substrate ENLYFDS” value was determined as 0.0433 and the “area with substrate ENLYFFS” value was determined as 0.0559. For the same variant, the “area with substrate ENLYFGS” value was 0.0676, the “area with substrate ENLYFHS” value was determined as 0.0367, the “area with substrate ENLYFIS” value was found to be 0.0599 and the “area with substrate ENLYFKS” value stood at 0.0578. The “area with substrate ENLYFMS” value stood at 0.0527, the “area with substrate ENLYFNS” value worked out at 0.0563, the “area with substrate ENLYFRS” value stood at 0.0528 and the “area with substrate ENLYFVS” value came out at 0.039. Further, the “area with substrate ENLYFWS” value was determined as 0.0392 and the “area with substrate ENLYFYS” value was 0.0335.
